Measured values taken from PubChem BioAssay (NCATS).
Inconclusive means that the source gave no clear call. Such entries were picked first, then a sample of the others. No potency is given beside an inconclusive call; the fits are too rough. Active and inactive are the calls of the source. The call rests on the fitted dose curve; in most records, active means well fitted inhibition curve with a large enough effect; inconclusive means small, poorly fitted or top-dose-only effect, or effect the other way; inactive means flat fitted curve, though single readings scatter.

Assay: qHTS for Inhibitors of Plasmodium falciparum (GB4) proliferation (AID 504315); further: nearly all actives have a fitted effect of over 50% in size;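 on activity change, negative = inhibition: 0% = DMSO vehicle and -100% = 0.29 µM artemisinin control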
Conditions: P. falciparum GB4 in erythrocytes, SYBR Green DNA, 72 h; activity change, negative = inhibition: at 6.7 µM (top of the series)
Method in brief: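 Parasite growth measured as SYBR Green DNA fluorescence (ex 485, em 535 nm) after overnight lysis following 72 h culture at 37 °C, 0.3% parasitemia, 2.5% hematocrit. Values normalized against DMSO and 0.29 uM artemisinin controls, with plate-stack correction.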
Potency means the concentration at half of the fitted maximal effect; tags describe the fitted curve by direction and shape.

SMILES | activity change, negative = inhibition | Potency
COCCN1C=C2C(=O)C(C)(OC(=O)CCC(=O)OC)C(=O)C(Br)=C2C=C1c1ccc(OC)cc1 (stereo unspecified) | inactive: 0.145% | 
CCCNC(=O)CC1OC(C2CCCCC2)Cc2ccccc21 (stereo unspecified) | inactive: 0.983% | 
COC(=O)CCC(=O)OC1(C)C(=O)C2=CN(c3ccc(OC)cc3)C(c3ccc(OC)cc3)=CC2=C(Br)C1=O (stereo unspecified) |  | inconclusive [activator]
CCN1C(=NCCCOC(C)C)N[C@@H](CCc2ccccc2)[C@H](C(=O)OC)[C@H]1C |  | inconclusive [inhibitor]
CCCCc1nc2c(c3c1C[C@H](C)OC3)CN(S(=O)(=O)c1c(C)noc1C)CC2 |  | inconclusive [activator, full curve, poor fit]
CC1(OC(=O)CCc2ccccc2)C(=O)C=C2C=C(c3ccc(C#N)cc3)N(CCN3CCOCC3)C=C2C1=O (stereo unspecified) | inactive: 7.36% | 
COC1=C[C@H](C(=O)NCc2ccccn2)[C@@]2(C)Cc3ccccc3[C@@H]2CC1=O |  | inconclusive [inhibitor, partial curve, poor fit]
O=C(Oc1ccccc1)[C@H]1O[C@H]1c1ccccc1 | inactive: -10.4% | 
COC(=O)NC(c1ccc2c(c1)OCO2)C(C(=O)OC)C(=O)OC (stereo unspecified) | inactive: 0.787% | 
CCCCCCCC1=CC2=C(Cl)C(=O)C(C)(OC(C)=O)C(=O)C2=CO1 (stereo unspecified) |  | inconclusive [activator, partial curve, poor fit]
C[C@@H]1C=CCC(=O)OC[C@H](C)C(=O)OC[C@H]2O[C@H]1C=C[C@H]2O | inactive: 1.21% | 
CCN1C(=O)N[C@@H](c2cccs2)C(C(C)=O)=C1C | inactive: 7.87% | 
COC/C=C/C1=CC2=CC(=O)C(C)(OC(=O)c3cnc4ccccc4n3)C(=O)C2=CN1C1CCCCC1 (stereo unspecified) | inactive: 8.76% | 
CC#CCN1C(=O)NC(c2ccccc2)C(C(=O)OC)=C1C (stereo unspecified) | inactive: 5.11% | 
C=CCN1C=C2C(=O)C(C)(OC(=O)C3CCCC3)C(=O)C=C2C=C1c1ccsc1 (stereo unspecified) |  | inconclusive [activator, full curve, poor fit]
COc1cccc([C@H]2Oc3ccc(OC)cc3C(=NO[C@@H](C)c3cc(-c4c(C)cc(C)cc4C)no3)[C@H]2O)c1 |  | inconclusive [inhibitor, single point]

SMILES | activity change, negative = inhibition | Potency
COC(=O)C1=C(C)N(Cc2ccccc2)C(=NCc2ccccc2)NC1c1ccccc1 (stereo unspecified) |  | inconclusive [inhibitor, partial curve, poor fit]
COC(=O)C1=C(C)N(Cc2ccccc2)C(=O)N[C@H]1c1ccco1 | inactive: -0.167% | 
COC(=O)C1=C(C(=O)OC)[C@@H]2Nc3ccccc3[C@@]23C[C@@H](C(=O)OC)N(S(=O)(=O)c2c(C)noc2C)C3=N1 |  | inconclusive [inhibitor, partial curve, poor fit]
CCCCC1=CC2=C(c3ccco3)C(=O)C(C)(OC(=O)c3ccc(OC)cc3)C(=O)C2=CN1C1CCCC1 (stereo unspecified) | inactive: 12.7% | 
C=C(Nc1ccc(OC)cc1)C(=O)OC |  | inconclusive [activator, full curve, poor fit]
COC(=O)NC(c1ccccc1)C1(C(=O)OC)C(=O)Cc2ccccc21 (stereo unspecified) |  | inconclusive [activator, full curve, poor fit]
COC(=O)C1=C(C(=O)OC)[C@@H]2N(C)c3ccc(OC)cc3[C@@]23C[C@@H](C(=O)OC)N(C(=O)c2cccs2)C3=N1 | inconclusive: 19.7% [activator] | 
c1ccc(CCc2nc(-c3ccccc3)oc2NC2CCCCC2)cc1 | inactive: -8.15% | 
CCOC(=O)CN1C(=O)NC(c2cccc(C(F)(F)F)c2)C(C(=O)OC)=C1C (stereo unspecified) |  | inconclusive [inhibitor, partial curve, poor fit]
CCOC(=O)CN1C(=O)NC(c2ccccc2)C(C(C)=O)=C1C (stereo unspecified) |  | inconclusive [inhibitor]
C=CCOC(=O)N[C@@H](c1ccccc1)[C@@H](C)[N+](=O)[O-] | inconclusive: 18.3% [activator] | 
COCCN1C(=O)N[C@@H](c2ccccc2)[C@H](C(C)=O)[C@H]1C |  | inactive
COc1cc2c(c(OC)c1OC)[C@@]1(c3ccccc3)CCCC[C@H]1[C@@H]2NC(=O)C(F)(F)F | inactive: -5.78% | 
COCCN1C(=O)N[C@@H](CCc2ccccc2)[C@H](C(C)=O)[C@H]1C |  | inactive
COC(=O)C1=C[C@@]2(c3ccc(OC)cc3[C@@H](OC)[C@@H]2C)[C@@H]2C=C[C@@H]1C2 |  | inconclusive [inhibitor]
